# Reference: PubChem BioAssay AID588579 (National Center for Advancing Translational Sciences (NCATS), 2011)
# Several values for one entry are separate records, joined by “and”; a condition that tells them apart may be missing. Equal values may be shown once. The campaign covered roughly 400,000 compounds. About 2,200 (0.55%) were called active. The inconclusive results got no clear call from the source; some entries with a clear call stand among them for comparison. Calls come from the whole dose curve; as a rule, active = well fitted inhibition curve with a large enough effect; inconclusive = small, poorly fitted or top-dose-only effect, or another doubt; inactive = no such curve, though single readings can be large or run the other way. Where the call is inconclusive, the potency comes from a doubtful curve fit.
# Biological target: DNA polymerase kappa (Homo sapiens) (UniProt Q9UBT6)
# Experiment: qHTS for Inhibitors of Polymerase Kappa
# Settings: purified Pol kappa, fluorescent DNA synthesis assay, 10 min; series mostly up to 107 µM; activity, negative = inhibition: at the top concentration
# Outline: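 Activity was followed as the change in fluorescence between reads at 0 and 10 min after starting the reaction with 50 nM substrate. Beforehand, 10 nM polymerase had been preincubated with compound for 15 min at room temperature.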
# % is set by controls: 0 for no effect and ±100 for the full control effect; potency is the fitted concentration of half-maximal effect; tags give direction and shape of the fitted curve.
# Sequence of UniProt Q9UBT6 (Q9UBT6 whole entry, looked up): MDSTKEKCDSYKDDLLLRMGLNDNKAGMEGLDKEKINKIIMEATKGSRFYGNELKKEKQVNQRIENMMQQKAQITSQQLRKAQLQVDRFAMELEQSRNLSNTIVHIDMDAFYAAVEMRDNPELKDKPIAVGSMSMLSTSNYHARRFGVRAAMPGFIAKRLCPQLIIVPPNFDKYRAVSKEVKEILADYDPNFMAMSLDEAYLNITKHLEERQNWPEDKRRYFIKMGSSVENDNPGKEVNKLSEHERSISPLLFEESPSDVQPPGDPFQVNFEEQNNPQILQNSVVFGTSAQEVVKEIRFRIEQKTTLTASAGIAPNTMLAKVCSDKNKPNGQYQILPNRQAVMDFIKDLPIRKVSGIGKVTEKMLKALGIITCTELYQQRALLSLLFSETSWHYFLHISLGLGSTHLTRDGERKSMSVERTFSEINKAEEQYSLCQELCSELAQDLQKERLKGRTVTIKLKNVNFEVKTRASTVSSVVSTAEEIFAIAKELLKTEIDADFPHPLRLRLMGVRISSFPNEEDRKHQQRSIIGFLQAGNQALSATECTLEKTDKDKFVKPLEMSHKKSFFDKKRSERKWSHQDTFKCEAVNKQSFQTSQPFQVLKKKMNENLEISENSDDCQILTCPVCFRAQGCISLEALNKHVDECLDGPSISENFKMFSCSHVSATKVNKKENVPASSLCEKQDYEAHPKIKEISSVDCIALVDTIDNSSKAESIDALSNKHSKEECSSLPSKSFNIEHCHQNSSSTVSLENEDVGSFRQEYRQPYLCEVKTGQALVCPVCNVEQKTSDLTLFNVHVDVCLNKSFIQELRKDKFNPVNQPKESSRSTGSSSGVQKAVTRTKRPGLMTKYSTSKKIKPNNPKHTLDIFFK
SMILES,"activity, negative = inhibition",Potency
COc1ccc(C)cc1-n1c(SCC(=O)Nc2cccc(C(=O)O)c2)nc2ccccc2c1=O,inactive: -28.5%,–
CCC(=O)Oc1ccc2c(c1)O/C(=C\c1ccco1)C2=O,–,"inconclusive: 89.1 µM [inhibitor, single point]"
COc1ccc(CCNC(=O)c2cc3c(=O)n4ccccc4nc3n2C)cc1,inactive: -7.46%,–
O=C(NNc1cccc(Cl)n1)c1c(F)cccc1F,inactive: -9.29%,–
O=C(CSc1nc2c(sc3ccccc32)c(=O)n1CCO)NCc1ccco1,–,"inconclusive: 89.1 µM [inhibitor, single point]"
O=C(N/N=C\C=C\c1ccco1)c1cc(-c2ccc3ccccc3c2)n[nH]1,–,active: 79.4 µM
CCCCCCc1cc2cc(-c3nnc(-c4ccccc4OC)o3)c(=O)oc2cc1O,–,active: 20 µM
Cc1nc2c(ncn2-c2ccccc2)c(=O)n1NC(=O)CN1CCCCC1,inactive: 11.2%,–
Cc1ccc(OCc2cc(=O)n3c(-c4ccccc4)csc3n2)cc1,–,"inconclusive: 89.1 µM [inhibitor, single point]"
O=C(Nc1ccc(C2=NCCN2)cc1)c1ccc(C(=O)Nc2ccc(C3=NCCN3)cc2)c(Cl)c1,–,"inconclusive: 56.2 µM [inhibitor, partial curve, poor fit]"
O=C(Cc1ccc(S(=O)(=O)N2CCOCC2)s1)Nc1nc2c(s1)CCCC2,–,active: 17.8 µM
CCNC(=O)N(C(=O)NCC)n1c(C)nnc1C,–,"inconclusive: 89.1 µM [inhibitor, partial curve, poor fit]"
O=C(NCCCN1CCN(c2ccccc2F)CC1)c1sc2ncccc2c1-n1cccc1,inactive: -6.88% [at 60.1 µM],–
NC(=O)Cc1ccc(C(=O)CSc2nnc(-c3ccncc3)n2C2CC2)s1,–,active: 79.4 µM
O=c1c2cc(O)c(O)cc2oc2cc(O)c(C3OC(CO)C(O)C(O)C3O)c(O)c12 (stereo not drawn),–,active: 3.55 µM and active: 3.98 µM
Cc1ccccc1OCC(=O)OCC(=O)Nc1ncc(Cl)c(C)c1Cl,–,"inconclusive: 89.1 µM [inhibitor, single point]"
O=C(c1ccco1)N1CCN(c2ncnc3sc4c(c23)CCC4)CC1,–,"inconclusive: 89.1 µM [inhibitor, single point]"
O=C1c2ccccc2C(=O)c2c1ccc(O)c2O,–,"inconclusive: 20 µM [inhibitor, partial curve] and inconclusive: 12.6 µM [inhibitor, partial curve]"
CCn1c(O)c(N=NC(=O)C2C(=O)NCC2c2ccccc2)c2ccccc21 (stereo not drawn),–,"inconclusive: 89.1 µM [inhibitor, single point]"
COc1cccc(/C=N/Nc2nc(Nc3ccc([N+](=O)[O-])cc3)nc(N3CCCC3)n2)c1O,–,active: 14.1 µM
CC(C)C(=O)Nc1nnc(CCc2ccccc2)s1,inactive: -19.9%,–
O=[N+]([O-])c1ccc2c(c1)C=CC2,–,active: 79.4 µM
Cc1cc(C)c2c(=O)c(C#N)coc2c1,–,"inconclusive: 56.2 µM [inhibitor, partial curve, poor fit]"
CCc1ccc(NS(=O)(=O)c2ccc3[nH]cc(C(=O)NC4CCCC4)c(=O)c3c2)cc1,–,"inconclusive: 89.1 µM [inhibitor, single point]"

SMILES,"activity, negative = inhibition",Potency
N=C1/C(=C\c2ccc(SCc3ccccc3)o2)C(=O)N=C2SC(CC(=O)N3CCOCC3)=NN12,–,"inconclusive: 79.4 µM [inhibitor, single point]"
NC(=O)c1ccc(NC(=O)COC(=O)/C=C/c2ccc(Br)o2)cc1,–,active: 35.5 µM
O=[N+]([O-])c1ccc(N2CCCCC2)nc1,inactive: 3.89%,–
CC1(C)C(=O)Nc2ccccc2N1C(=O)COc1ccccc1C#N,–,"inconclusive: 100 µM [inhibitor, single point]"
CC(=O)Nc1ccc(C(=O)CN2CCN(c3ccccc3)CC2)cc1,inactive: -3.92%,–
O=C1S/C(=C\c2ccc(O)c([N+](=O)[O-])c2)C(=O)N1Cc1cccc([N+](=O)[O-])c1,–,"inconclusive: 89.1 µM [inhibitor, single point]"
CCN(CC)c1ccc(SS(=O)(=O)O)cc1,–,inactive
Cc1[nH]c2ccccc2c1C(=O)COC(=O)c1ccccc1SCC(=O)N1CCCC1,inactive: 2.92%,–
CCCCn1c(N)c(N(CCOC)C(=O)C2CC(=O)N(Cc3ccc(C)cc3)C2)c(=O)[nH]c1=O (stereo not drawn),–,"inconclusive: 79.4 µM [inhibitor, partial curve, poor fit]"
Cc1noc(C)c1COc1cccc(C(=O)N2CCc3ccccc32)c1,–,"inconclusive: 89.1 µM [inhibitor, single point]"
O=C(O)CCN1CCc2ccccc21,–,"inconclusive: 89.1 µM [inhibitor, single point]"
CC(=O)[C@]1(O)Cc2c(O)c3c(c(O)c2[C@@H](O[C@H]2C[C@H](N)[C@H](O)[C@H](C)O2)C1)C(=O)c1ccccc1C3=O,–,active: 35.5 µM and active: 7.94 µM and active: 26.7 µM
O=C(O)c1cccc(NC(=O)c2cc3cc(Br)cc(Br)c3oc2=O)c1,–,"inconclusive: 44.7 µM [inhibitor, partial curve, poor fit]"
COc1ccc(S(=O)(=O)N(CC(=O)NCCSc2ccccc2)c2ccc(C)cc2)cc1,inactive: -16.6%,–
Cc1cc[n+](-c2[nH]c(=O)sc2/C=N/N=C(\[O-])c2ccccc2)cc1,–,"inconclusive: 100 µM [inhibitor, single point]"
CCOc1ccccc1C(=O)NC1(C(F)(F)F)C(=O)Nc2c1c(=O)[nH]c(=O)n2-c1ccccc1 (stereo not drawn),inactive: -0.571%,–
O=[N+]([O-])c1ccc(Cl)c(-c2ccc(/C=N/n3cnnc3)o2)c1,–,"inconclusive: 89.1 µM [inhibitor, single point]"
CCC(C)Sc1oc(-c2ccco2)nc1S(=O)(=O)c1ccc(Cl)cc1 (stereo not drawn),inactive: 0.272%,–
Cc1ccc(NC(=O)Cn2nnc(C(=O)NCCc3ccccc3)c2N)cc1,–,"inconclusive: 89.1 µM [inhibitor, single point]"
O=C(NCc1ccc(Cl)cc1)c1ccc2c(c1)NC(=O)C(CS(=O)(=O)Cc1ccc(F)cc1Cl)N2 (stereo not drawn),inactive: -14.2%,–
Cn1cccc1CC(=O)N/N=C/c1cccc2ccccc12,inactive: -5.68%,–
COc1ccccc1CN1CCCC2(CCN(C(=O)c3cc(C(F)(F)F)cc(C(F)(F)F)c3)CC2)C1,inactive: 8.95% [at 60.1 µM],–
CCc1nnc(SCc2nc(-c3cccc(Cl)c3)oc2C)c2cc3sc(C)cc3n12,–,"inconclusive: 89.1 µM [inhibitor, single point]"
O=C(C1CC(=O)N(c2ccc(F)cc2)C1)N1CCCCCC1 (stereo not drawn),–,"inconclusive: 100 µM [inhibitor, single point]"
